{"source": "the supplement of paper PMC9446081", "note": "Screen size: about 39,000 compounds; about 220 (0.56%) showed activity. The list shows a part of the results.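 Also: static incubation at 37 °C against the wild-type strain, values averaged over two biological replicates.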"}
{"test_system": "Escherichia coli K-12 BW25113", "assay": "relative growth (OD600 normalised to plate interquartile mean) (fraction); higher = less growth inhibition, active = 0.2 or less", "conditions": "50 µM; LB; incubation time: overnight (16-24 h)"}
{"smiles": "C[C@@H]1CN([C@@H](C)CO)C(=O)c2cccc(NC(=O)C3CCOCC3)c2O[C@@H]1CN(C)Cc1ccc2c(c1)OCO2", "relative growth": "inactive: 0.999"}
{"smiles": "C[C@H]1CN([C@@H](C)CO)C(=O)c2c(c3ccccc3n2C)-c2ccccc2CO[C@H]1CN(C)S(=O)(=O)c1ccc(C(F)(F)F)cc1", "relative growth": "inactive: 1.03"}
{"smiles": "C[C@@H]1CN([C@@H](C)CO)C(=O)c2cc(NC(=O)CCC(F)(F)F)ccc2O[C@@H](C)CCCCO[C@@H]1CN(C)C(=O)Nc1ccc(F)cc1", "relative growth": "inactive: 0.992"}
{"smiles": "CC(=O)Nc1c(O)[nH]c(SCC(=O)N2CCOCC2)nc1=O", "relative growth": "inactive: 0.908"}
{"smiles": "COc1ccc(NC(=O)N(C)C[C@@H]2OCCCC[C@@H](C)Oc3ccc(NS(=O)(=O)c4ccccc4)cc3C(=O)N([C@H](C)CO)C[C@H]2C)cc1", "relative growth": "inactive: 1.01"}
{"smiles": "COc1ccccc1CN1C(=O)c2ccccc2[C@@]2(Cc3ccccc3N(Cc3ccccc3)C2=O)[C@@H]1c1ccc(CO)cc1", "relative growth": "inactive: 0.991"}
{"smiles": "COc1ccc(S(=O)(=O)N(C)C[C@@H]2Oc3ccc(N(C)C)cc3CC(=O)N([C@@H](C)CO)C[C@H]2C)cc1", "relative growth": "inactive: 1.02"}
{"smiles": "C[C@@H]1CN([C@@H](C)CO)C(=O)c2cc(NC(=O)c3ccncc3)ccc2O[C@@H](C)CCCCO[C@H]1CN(C)Cc1ccc(C(F)(F)F)cc1", "relative growth": "inactive: 1.01"}
{"smiles": "O=C(O)CC(O)(CC(=O)O)C(=O)O", "relative growth": "inactive: 1.06"}
{"smiles": "C[C@H](CO)N1C[C@H](C)[C@H](CN(C)C(=O)Nc2ccc(C(F)(F)F)cc2)Oc2ncc(/C=C/c3ccccc3)cc2C1=O", "relative growth": "inactive: 0.993"}
{"smiles": "C[C@@H]1CCCCO[C@H](CN(C)Cc2ccccc2)[C@H](C)CN([C@H](C)CO)C(=O)c2cc(NC(=O)Nc3ccccc3)ccc2O1", "relative growth": "inactive: 0.983"}
{"smiles": "CCN(CC)CCOC(=O)C(c1ccccc1)C1CCCCC1.Cl", "note": "(stereo not drawn)", "relative growth": "inactive: 0.883"}
{"smiles": "C[C@@H]1CCCCO[C@@H](CN(C)S(=O)(=O)c2cn(C)cn2)[C@H](C)CN([C@@H](C)CO)C(=O)c2cc(NC(=O)CCCN(C)C)ccc2O1", "relative growth": "inactive: 0.992"}
{"smiles": "CON(C)c1nc(Oc2ccc(=O)[nH]n2)nc(N(C)C)n1", "relative growth": "inactive: 1.01"}
{"smiles": "O=C(C[C@@H]1CC[C@H]2[C@@H](COC[C@H](O)CN2C(=O)Nc2ccc(C(F)(F)F)cc2)O1)NCCc1ccncc1", "relative growth": "inactive: 0.961"}
{"smiles": "C[C@H](CO)N1C[C@H](C)[C@H](CN(C)Cc2ccc(C(=O)Nc3ccccc3N)cc2)Oc2ccc(NC(=O)Cc3ccccc3)cc2C1=O", "relative growth": "inactive: 1.02"}
{"smiles": "CN(C)[C@@H](CN)c1cccn1C", "relative growth": "inactive: 0.993"}
{"smiles": "CC(C)NC(=O)N(C)C[C@H]1Oc2ccc(NC(=O)Cc3ccccc3)cc2C(=O)N([C@H](C)CO)C[C@H]1C", "relative growth": "inactive: 1.03"}
{"smiles": "C[C@@H]1CN([C@@H](C)CO)C(=O)c2cccc(NC(=O)Nc3cccc4ccccc34)c2O[C@H]1CN(C)S(=O)(=O)c1ccc(F)cc1", "relative growth": "inactive: 1.02"}
{"smiles": "Cc1cc(C(=O)Nc2cccc3c2O[C@H](CN(C)S(=O)(=O)c2ccc(F)cc2)[C@H](C)CN([C@@H](C)CO)C3=O)n(C)n1", "relative growth": "inactive: 1.02"}
{"smiles": "O=C(N[C@H]1C=C[C@@H](CC(=O)N2CCOCC2)O[C@@H]1CO)c1ccccn1", "relative growth": "inactive: 0.982"}
{"smiles": "Cc1ccc(S(=O)(=O)Nc2ccc3c(c2)C(=O)N([C@@H](C)CO)C[C@@H](C)[C@@H](CN(C)C(=O)Nc2ccc(F)cc2)OCCCC[C@H](C)O3)cc1", "relative growth": "inactive: 1.04"}
{"smiles": "Cc1noc(C)c1NC(=O)N(C)C[C@H]1OCCCC[C@@H](C)Oc2ccc(NS(=O)(=O)c3ccc(Cl)cc3)cc2C(=O)N([C@H](C)CO)C[C@@H]1C", "relative growth": "inactive: 0.999"}
{"smiles": "N#CC1C(=O)NC(=O)N=C1Nc1ccccc1", "note": "(stereo not drawn)", "relative growth": "inactive: 0.981"}
{"smiles": "C[C@@H]1CN([C@H](C)CO)C(=O)Cc2cc(NS(=O)(=O)c3ccc(F)cc3)ccc2O[C@H]1CN(C)CC1CC1", "relative growth": "inactive: 1.03"}
{"smiles": "C[C@H](CO)N1C[C@H](C)[C@H](CN(C)S(=O)(=O)c2cn(C)cn2)Oc2c(NC(=O)Nc3ccc(F)cc3)cccc2C1=O", "relative growth": "inactive: 1.01"}
{"smiles": "N#CCSc1ncnc2c1cnn2CCO", "relative growth": "inactive: 1"}
{"smiles": "C[C@H]1CCCCO[C@@H](CN(C)C)[C@@H](C)CN([C@@H](C)CO)C(=O)c2cc(NS(=O)(=O)c3cn(C)cn3)ccc2O1", "relative growth": "inactive: 1"}
{"smiles": "CNC[C@H]1OCCCC[C@@H](C)Oc2ccc(NS(=O)(=O)c3cn(C)cn3)cc2C(=O)N([C@H](C)CO)C[C@H]1C", "relative growth": "inactive: 1.02"}
{"smiles": "CC(C)NC(=O)N(C)C[C@H]1Oc2ccc(NC(=O)NC3CCCCC3)cc2C(=O)N([C@@H](C)CO)C[C@@H]1C", "relative growth": "inactive: 0.967"}
{"smiles": "CC(C)NC(=O)Nc1ccc2c(c1)CC(=O)N([C@@H](C)CO)C[C@@H](C)[C@H](CN(C)Cc1ccc(C(=O)O)cc1)O2", "relative growth": "inactive: 0.997"}
{"smiles": "CCCN(C)C[C@@H]1OCCCC[C@H](C)Oc2ccc(NC(=O)Nc3ccc(C(F)(F)F)cc3)cc2C(=O)N([C@H](C)CO)C[C@@H]1C", "relative growth": "inactive: 0.97"}
{"smiles": "O=C(C[C@H]1CC[C@H]2[C@@H](COC[C@@H](O)CN2CC2CCOCC2)O1)N1CCOCC1", "relative growth": "inactive: 0.941"}
{"smiles": "CCC(=O)N[C@H]1C=C[C@@H](CC(=O)OC)O[C@@H]1CO", "relative growth": "inactive: 0.989"}
{"smiles": "O=C(O)CCC(=O)N[C@H]1CCCCNC1=O", "relative growth": "inactive: 1"}
{"smiles": "C[C@@H]1CN([C@@H](C)CO)C(=O)c2cc(-c3cccc(C#N)c3)cnc2O[C@H]1CN(C)C(=O)C1CCOCC1", "relative growth": "inactive: 1.01"}
{"smiles": "CN(C)CC(=O)N[C@H]1CC[C@H](CCn2cc(CN(C)C)nn2)O[C@@H]1CO", "relative growth": "inactive: 0.984"}
{"smiles": "C[C@@H]1CN([C@@H](C)CO)C(=O)Cc2cc(NC(=O)Cc3cn(C)c4ccccc34)ccc2O[C@@H]1CN(C)C", "relative growth": "inactive: 1.01"}
{"smiles": "C[C@H]1CN([C@@H](C)CO)C(=O)c2cc(NS(C)(=O)=O)ccc2O[C@H]1CN(C)Cc1ccc(C(F)(F)F)cc1", "relative growth": "inactive: 0.986"}
{"smiles": "C[C@H]1CN([C@@H](C)CO)S(=O)(=O)c2ccc(-c3ccc(C#N)cc3)cc2O[C@H]1CN(C)C(=O)CN(C)C", "relative growth": "inactive: 0.969"}
{"smiles": "C[C@H](CO)N1C[C@H](C)[C@@H](CN(C)C(=O)Nc2ccc3c(c2)OCO3)OCCCC[C@H](C)Oc2ccc(NC(=O)Nc3ccc(C(F)(F)F)cc3)cc2C1=O", "relative growth": "inactive: 0.995"}
{"smiles": "O=C(C[C@H]1CC[C@@H]2[C@H](COC[C@H](O)CN2C(=O)Nc2ccc(Cl)cc2)O1)NCCc1ccncc1", "relative growth": "inactive: 1"}
{"smiles": "COc1cc(O)c(C(=O)c2ccccc2)cc1S(=O)(=O)O", "relative growth": "inactive: 1.06"}
{"smiles": "Cc1ccc(S(=O)(=O)Nc2ccc3c(c2)C(=O)N([C@@H](C)CO)C[C@@H](C)[C@@H](CN(C)Cc2ccc4c(c2)OCO4)OCCCC[C@H](C)O3)cc1", "relative growth": "inactive: 0.986"}
{"smiles": "COc1ncnc2nc[nH]c12", "relative growth": "inactive: 0.932"}
{"smiles": "CO/N=C(\\C(=O)N[C@@H]1C(=O)N2C(C(=O)O)=C(C[N+]3(C)CCCC3)CS[C@H]12)c1csc(N)n1", "relative growth": "active: 0.0339"}
{"smiles": "CO[C@H]1CN(C)C(=O)c2ccc(NS(C)(=O)=O)cc2OC[C@@H](C)N(C(=O)c2ccc3c(c2)OCO3)C[C@@H]1C", "relative growth": "inactive: 1"}
{"smiles": "CS(=O)(=O)N1CCN2C[C@H](C(=O)O)CN(Cc3ccoc3)C[C@@H]2C1", "relative growth": "inactive: 1.02"}
{"smiles": "C[C@@H]1CCCCO[C@H](CN(C)S(=O)(=O)c2ccccc2)[C@@H](C)CN([C@@H](C)CO)C(=O)c2cc(NC(=O)NC3CCCCC3)ccc2O1", "relative growth": "inactive: 1"}
{"smiles": "C[C@@H]1CCCCO[C@H](CN(C)C(=O)Nc2ccc(F)cc2)[C@H](C)CN([C@@H](C)CO)C(=O)c2cc(NS(=O)(=O)c3ccc(F)cc3)ccc2O1", "relative growth": "inactive: 1.01"}
{"smiles": "COc1ccc(NC(=O)Nc2ccc3c(c2)CC(=O)N([C@@H](C)CO)C[C@@H](C)[C@@H](CN(C)Cc2ccc(C(=O)Nc4ccccc4N)cc2)O3)cc1", "relative growth": "inactive: 0.986"}
{"smiles": "C[C@H](CO)N1C[C@H](C)[C@H](CN(C)C(=O)NC2CCCCC2)Oc2ccc(NC(=O)CCN3CCOCC3)cc2CC1=O", "relative growth": "inactive: 0.983"}
{"smiles": "COc1cc(CO)cc(I)c1O[C@H]1C=C(C(=O)NCCO)C[C@@H](NC2CCCCCC2)[C@@H]1O", "relative growth": "inactive: 0.908"}
{"smiles": "C[C@H]1CC/C=C\\[C@H]2O[C@@]34C=CCN(Cn5nnc6ccccc65)C(=O)[C@H]3N(CCCO)C(=O)[C@@H]4[C@@H]2C(=O)O1", "relative growth": "inactive: 0.979"}
{"smiles": "C[C@@H]1CN([C@H](C)CO)C(=O)Cc2cc(NC(=O)CCCN(C)C)ccc2O[C@@H]1CN(C)Cc1ccc(Oc2ccccc2)cc1", "relative growth": "inactive: 1.03"}
{"smiles": "COc1ccc2c3c(n(c2c1)C)[C@@H](CO)N(Cc1cc(cc(c1)OC)OC)C[C@]13CN(C1)C(=O)CN1CCOCC1", "relative growth": "inactive: 1"}
{"smiles": "C[C@H]1CN([C@@H](C)CO)C(=O)c2cc(NS(C)(=O)=O)ccc2O[C@@H]1CN(C)S(=O)(=O)c1cccs1", "relative growth": "inactive: 1.01"}
{"smiles": "O=C(O)CCc1nnc2ccc(Cl)nn12", "relative growth": "inactive: 0.923"}
{"smiles": "Cn1cnc(CCNC(=O)C[C@@H]2CC[C@H]3[C@@H](COC[C@@H](O)CN3C(=O)C3CC3)O2)c1", "relative growth": "inactive: 1.01"}
{"smiles": "COc1ccc(CN(C)C[C@H]2Oc3ccc(NC(=O)CCN4CCOCC4)cc3CC(=O)N([C@@H](C)CO)C[C@@H]2C)cc1", "relative growth": "inactive: 1.01"}
{"smiles": "CCCNC(=O)Nc1ccc2c(c1)C(=O)N(C)C[C@H](OC)[C@H](C)CN(C(=O)C1CCOCC1)[C@H](C)CO2", "relative growth": "inactive: 0.957"}
{"smiles": "COc1ccc(S(=O)(=O)N(C)C[C@H]2OCCCC[C@H](C)Oc3ccc(NC(=O)Nc4cccc5ccccc45)cc3C(=O)N([C@H](C)CO)C[C@@H]2C)cc1", "relative growth": "inactive: 1.02"}
{"smiles": "C[C@H](CO)N1C[C@H](C)[C@H](CN(C)C(=O)Nc2ccc(C(F)(F)F)cc2)Oc2ncc(-c3ccc(C#N)cc3)cc2C1=O", "relative growth": "inactive: 1.01"}
